Data reported in a collection of fitness landscapes (doi:10.1038/s41467-024-54723-y).
In all, about 18,000 sequences were measured (“TetR repression strength (sort-seq, GFP reporter)”: median about 0.23, highest 2% from about 0.68 on). The list shows a part of the results.

These sequences were tested against TetR (class B, Tn10) (UniProt P04483) (assay: TetR repression strength (sort-seq, GFP reporter) (relative to tetO2 = 1); higher = stronger repression). Settings: E. coli.
Sequence of UniProt P04483 (P04483 whole entry): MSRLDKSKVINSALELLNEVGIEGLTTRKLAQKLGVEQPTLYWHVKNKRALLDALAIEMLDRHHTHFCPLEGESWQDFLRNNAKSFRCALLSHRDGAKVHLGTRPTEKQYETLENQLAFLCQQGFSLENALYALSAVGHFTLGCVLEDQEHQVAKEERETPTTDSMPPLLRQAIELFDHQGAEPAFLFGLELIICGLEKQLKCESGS
Procedure, shortened: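 In LB with 50 µg/mL chloramphenicol, E. coli SIG10-MAX holding a low-copy library with eight randomized operator positions between a constitutive promoter and sfGFP, plus constitutive TetR, grew for 5 h at 37 °C. FACS then sorted 10^6 cells into 13 fluorescence bins for Illumina sequencing of each bin. Repression strength equals the top bin index plus one less the read-weighted mean bin, normalized to the unaltered operator. Values from three independent transformations were averaged when reads were ≥30 in every replicate and the CV was ≤0.5.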
Sequence TCCCGGGGAGTGAGTGAGA has a TetR repression strength of 0.153.
Work on TCCCTGGAAGTTTGAGAGA yielded a TetR repression strength of 0.082.
With TCCCGTCTAGTGAGGGAGA the TetR repression strength was 0.25.
With TCCCTGCAAGTGTCTGAGA the TetR repression strength was 0.251.
Sequence TCCCCGGTAGTTTCGGAGA has a TetR repression strength of 0.239.
Sequence TCCCAGCGAGTCCGGGAGA has a TetR repression strength of 0.0826.
Sequence TCCCTGAGAGTGATCGAGA has a TetR repression strength of 0.0416.
For TCCCCGAGAGTGATGGAGA, the TetR repression strength was 0.391.
TCCCTGGGAGTCGCGGAGA showed a TetR repression strength of 0.205.
TCCCCATGAGTATTCGAGA showed a TetR repression strength of 0.353.
Sequence TCCCATGCAGTTATGGAGA has a TetR repression strength of 0.15.
TCCCCGATAGTCGTGGAGA gave a TetR repression strength of 0.177.
Work on TCCCCAGAAGTGCGAGAGA yielded a TetR repression strength of 0.522.
TCCCGTGGAGTCCGCGAGA was tested, and the TetR repression strength was 0.174.
With TCCCGTGAAGTAGGAGAGA the TetR repression strength was 0.154.
Sequence TCCCTATGAGTGCGCGAGA has a TetR repression strength of 0.253.
TCCCACATAGTCAATGAGA was tested, and the TetR repression strength was 0.473.
TCCCTAGAAGTTTATGAGA showed a TetR repression strength of 0.249.
For TCCCGGCTAGTGTCGGAGA, the TetR repression strength was 0.184.
For TCCCACTGAGTTAACGAGA, the TetR repression strength was 0.175.
Sequence TCCCACTGAGTACGTGAGA has a TetR repression strength of 0.193.
For TCCCATGGAGTTGTGGAGA, the TetR repression strength was 0.203.
For TCCCTGAGAGTCACCGAGA, the TetR repression strength was 0.346.
In the case of TCCCACGCAGTGAGTGAGA, the TetR repression strength is reported as 0.155.
For TCCCTACTAGTTGTAGAGA, the TetR repression strength was 0.303.
With TCCCTGCGAGTTATAGAGA the TetR repression strength was 0.346.
With TCCCCGAGAGTACTAGAGA the TetR repression strength was 0.268.
In the case of TCCCCGCTAGTGTTTGAGA, the TetR repression strength is reported as 0.375.
TCCCTAAGAGTGGGAGAGA was tested, and the TetR repression strength was 0.174.
Work on TCCCTGCGAGTCTGCGAGA yielded a TetR repression strength of 0.339.
Sequence TCCCCTCTAGTGTCAGAGA has a TetR repression strength of 0.326.
For TCCCATCGAGTGTGGGAGA, the TetR repression strength was 0.468.
TCCCATTCAGTGATCGAGA was tested, and the TetR repression strength was 0.731.
For TCCCAACGAGTAATGGAGA, the TetR repression strength was 0.395.
Sequence TCCCGGAGAGTACCTGAGA has a TetR repression strength of 0.0134.
TCCCATGCAGTATTTGAGA was tested, and the TetR repression strength was 0.254.
TCCCATGAAGTGGTTGAGA was tested, and the TetR repression strength was 0.502.
Sequence TCCCAGAGAGTCTCTGAGA has a TetR repression strength of 0.311.
Sequence TCCCCCTAAGTGCGTGAGA has a TetR repression strength of 0.155.
For TCCCGTTAAGTTAAGGAGA, the TetR repression strength was 0.323.
TCCCTGTCAGTATAGGAGA showed a TetR repression strength of 0.0605.
TCCCTAATAGTAGGGGAGA showed a TetR repression strength of 0.248.
Work on TCCCTTGGAGTGGGGGAGA yielded a TetR repression strength of 0.211.
In the case of TCCCTAATAGTTCGTGAGA, the TetR repression strength is reported as 0.207.
TCCCGTTTAGTGCTCGAGA was tested, and the TetR repression strength was 0.229.
Work on TCCCATGTAGTGTAGGAGA yielded a TetR repression strength of 0.315.
TCCCGTAGAGTTAGAGAGA was tested, and the TetR repression strength was 0.181.
TCCCATGGAGTCCGTGAGA was tested, and the TetR repression strength was 0.182.
For TCCCGGCTAGTGGATGAGA, the TetR repression strength was 0.227.
TCCCTCCTAGTCAGGGAGA gave a TetR repression strength of 0.104.
TCCCACGGAGTGAAGGAGA was tested, and the TetR repression strength was 0.291.
Work on TCCCATTCAGTGTCGGAGA yielded a TetR repression strength of 0.125.
Sequence TCCCTTTAAGTTCATGAGA has a TetR repression strength of 0.348.
TCCCAATCAGTGCGCGAGA showed a TetR repression strength of 0.289.
With TCCCGTGGAGTGAATGAGA the TetR repression strength was 0.475.
TCCCATGTAGTAGCAGAGA showed a TetR repression strength of 0.
TCCCACCGAGTTCTGGAGA was tested, and the TetR repression strength was 0.253.
In the case of TCCCAAGGAGTGCGAGAGA, the TetR repression strength is reported as 0.0159.
TCCCTACGAGTTGACGAGA was tested, and the TetR repression strength was 0.217.
TCCCGCCCAGTCGAGGAGA showed a TetR repression strength of 0.196.
Work on TCCCTTACAGTTATTGAGA yielded a TetR repression strength of 0.159.
With TCCCCAAGAGTCGGTGAGA the TetR repression strength was 0.171.
TCCCGCGCAGTGTGGGAGA showed a TetR repression strength of 0.144.
Work on TCCCATTGAGTGACGGAGA yielded a TetR repression strength of 0.501.
TCCCACGTAGTCTTAGAGA was tested, and the TetR repression strength was 0.334.
TCCCTGGGAGTTGCAGAGA gave a TetR repression strength of 0.393.
TCCCTTTAAGTCGTTGAGA showed a TetR repression strength of 0.234.
TCCCTGTAAGTCATAGAGA showed a TetR repression strength of 0.392.
Sequence TCCCTCACAGTAGGGGAGA has a TetR repression strength of 0.0553.
With TCCCCTGCAGTGGCAGAGA the TetR repression strength was 0.352.
Work on TCCCATAAAGTCGAGGAGA yielded a TetR repression strength of 0.277.
TCCCTGACAGTGAATGAGA showed a TetR repression strength of 0.175.
TCCCGGCCAGTGATTGAGA gave a TetR repression strength of 0.455.
TCCCTTCTAGTTGTGGAGA was tested, and the TetR repression strength was 0.484.
Work on TCCCGCGTAGTCTGGGAGA yielded a TetR repression strength of 0.359.
TCCCCGGGAGTTGCCGAGA was tested, and the TetR repression strength was 0.332.
For TCCCTGGGAGTTTTGGAGA, the TetR repression strength was 0.508.
In the case of TCCCGGATAGTGCGCGAGA, the TetR repression strength is reported as 0.129.
For TCCCACCGAGTTAACGAGA, the TetR repression strength was 0.559.
With TCCCATATAGTAGGCGAGA the TetR repression strength was 0.204.
TCCCTGTAAGTGGGGGAGA gave a TetR repression strength of 0.17.
TCCCGGCAAGTTGGCGAGA showed a TetR repression strength of 0.0984.
Work on TCCCGATTAGTAGCGGAGA yielded a TetR repression strength of 0.0756.
For TCCCCGGTAGTGATGGAGA, the TetR repression strength was 0.189.
In the case of TCCCTTTTAGTTATAGAGA, the TetR repression strength is reported as 0.231.
With TCCCGAGTAGTCGGGGAGA the TetR repression strength was 0.311.
For TCCCACGAAGTTGCAGAGA, the TetR repression strength was 0.207.
Sequence TCCCAGGGAGTGGGGGAGA has a TetR repression strength of 0.288.
In the case of TCCCCTGAAGTGCCAGAGA, the TetR repression strength is reported as 0.546.
TCCCCAGCAGTCATCGAGA gave a TetR repression strength of 0.127.
For TCCCCTTAAGTTTAGGAGA, the TetR repression strength was 0.151.
TCCCGAGGAGTGTCGGAGA gave a TetR repression strength of 0.246.
For TCCCCAAGAGTATTGGAGA, the TetR repression strength was 0.218.
TCCCTTACAGTAAGGGAGA showed a TetR repression strength of 0.208.
Work on TCCCGTGGAGTGTGTGAGA yielded a TetR repression strength of 0.215.
For TCCCCTAAAGTTGTCGAGA, the TetR repression strength was 0.518.
TCCCCTCGAGTTGCGGAGA gave a TetR repression strength of 0.144.
TCCCGAAAAGTAAAGGAGA gave a TetR repression strength of 0.348.
In the case of TCCCTGTTAGTTGCGGAGA, the TetR repression strength is reported as 0.312.
With TCCCGAGTAGTACGAGAGA the TetR repression strength was 0.309.
TCCCCTGAAGTGATAGAGA gave a TetR repression strength of 0.484.
TCCCAGTGAGTCGCAGAGA was tested, and the TetR repression strength was 0.0941.
TCCCGTCGAGTGTAGGAGA gave a TetR repression strength of 0.321.
With TCCCGGGGAGTTCACGAGA the TetR repression strength was 0.182.
Sequence TCCCTCGGAGTGCGGGAGA has a TetR repression strength of 0.249.
Sequence TCCCGGGTAGTGCTGGAGA has a TetR repression strength of 0.152.
For TCCCGACGAGTGAGCGAGA, the TetR repression strength was 0.186.
TCCCTTAAAGTTTGAGAGA was tested, and the TetR repression strength was 0.0942.
TCCCCACGAGTGACCGAGA gave a TetR repression strength of 0.104.
Work on TCCCGTTGAGTGGGGGAGA yielded a TetR repression strength of 0.195.
TCCCGGAAAGTCAAGGAGA was tested, and the TetR repression strength was 0.547.
In the case of TCCCACTAAGTGGCGGAGA, the TetR repression strength is reported as 0.162.
TCCCGGGCAGTAATGGAGA was tested, and the TetR repression strength was 0.37.
With TCCCGCAGAGTTTCGGAGA the TetR repression strength was 0.148.
Sequence TCCCCCCCAGTACGCGAGA has a TetR repression strength of 0.0399.
With TCCCGCCTAGTTAGAGAGA the TetR repression strength was 0.309.
For TCCCGCGTAGTGGGAGAGA, the TetR repression strength was 0.178.
Sequence TCCCTGGTAGTGGTCGAGA has a TetR repression strength of 0.174.
In the case of TCCCAACAAGTAGAGGAGA, the TetR repression strength is reported as 0.206.
Sequence TCCCGTTGAGTGGGAGAGA has a TetR repression strength of 0.25.
TCCCTGAGAGTCGGCGAGA gave a TetR repression strength of 0.192.
In the case of TCCCATGCAGTGATGGAGA, the TetR repression strength is reported as 0.191.
TCCCCTATAGTACTTGAGA was tested, and the TetR repression strength was 0.255.
Work on TCCCCGCGAGTGCACGAGA yielded a TetR repression strength of 0.407.
Work on TCCCGGTTAGTGCCTGAGA yielded a TetR repression strength of 0.242.
Sequence TCCCAGCCAGTCGGGGAGA has a TetR repression strength of 0.184.
Work on TCCCATTAAGTTCAGGAGA yielded a TetR repression strength of 0.533.
TCCCGTTGAGTTACGGAGA showed a TetR repression strength of 0.166.
In the case of TCCCCGGCAGTAAGCGAGA, the TetR repression strength is reported as 0.399.
Work on TCCCGCGGAGTCTGTGAGA yielded a TetR repression strength of 0.32.
